# In publication PMC5519724:
# Amino acid sequences for entries named in this document (tags omitted). A change or cut given only in a name is not applied to a line headed by its entry.
# UniProt P03407: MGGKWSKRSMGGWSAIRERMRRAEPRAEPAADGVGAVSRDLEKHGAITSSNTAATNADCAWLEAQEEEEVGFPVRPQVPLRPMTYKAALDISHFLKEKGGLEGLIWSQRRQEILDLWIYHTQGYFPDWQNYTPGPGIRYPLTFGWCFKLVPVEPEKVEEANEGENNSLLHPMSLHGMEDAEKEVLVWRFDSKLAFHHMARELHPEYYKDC
# UniProt O95166: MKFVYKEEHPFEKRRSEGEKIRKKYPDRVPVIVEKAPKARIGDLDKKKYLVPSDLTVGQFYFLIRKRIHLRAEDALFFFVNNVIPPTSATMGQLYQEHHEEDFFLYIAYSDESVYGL
# UniProt P60520: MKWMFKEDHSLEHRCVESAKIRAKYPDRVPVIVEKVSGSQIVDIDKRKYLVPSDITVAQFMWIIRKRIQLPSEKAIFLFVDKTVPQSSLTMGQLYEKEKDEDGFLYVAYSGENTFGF
# Results are given in words; binding and its absence hold for the method and conditions named. For some of these results: Binding seen in cells or lysates may run through a third protein. Some results given as binding are weak or reduced against the parent protein; the word gives no strength.
# Legend:
# [1] = molecular target: recombinant HIV-1 Nef (SF2) with C-terminal hexahistidine tag (HIV-1 (SF2)) (UniProt P03407); experiment: pull-down; 50 μM purified Nef immobilised on NHS-activated Sepharose 4 Fast Flow by amine coupling; 25 μM purified ATG8 or mutant in 200 μl binding buffer, 4 h at 4 °C; washed three times with 1x PBS; eluted with 50 mM glycine pH 2.3; SDS-PAGE and CBB staining; uncoupled Sepharose as control; both purified
# [2] = molecular target: Nef-DsRed (HIV-1 Nef fused to DsRed) (HIV-1) (UniProt P03407); experiment: co-IP
# [3] = molecular target: YFP-GABARAP (human) (UniProt O95166); experiment: co-IP; reciprocal: lysate of HEK293 cells stably expressing Nef-DsRed and transfected with YFP or YFP-ATG8 plasmids; IP with anti-YFP (anti-GFP) antibody coupled to agarose beads; blot with anti-DsRed
# [4] = molecular target: YFP-GABARAPL2 (human) (UniProt P60520); experiment: as above
# [5] = molecular target: γ-amino-butyric acid receptor-associated protein (GABARAP), endogenous (human (endogenous in HEK293)) (UniProt O95166); experiment: co-IP; reverse IP: lysate of HEK293 cells stably expressing Nef-DsRed; IP with anti-[…]2, anti-GABARAP, anti-[…]1 or anti-LC3B antibody coupled to agarose beads; blot with anti-DsRed
# [6] = molecular target: Golgi-associated ATPase enhancer of 16 kDa/GABARAP-like 2 (GATE-16/GABARAPL2), endogenous (human (endogenous in HEK293)) (UniProt P60520); experiment: as above
# [7] = molecular target: Nef-DsRed (HIV-1 Nef fused to DsRed) (HIV-1) (UniProt P03407); experiment: co-IP; lysate of HEK293 cells stably expressing Nef-DsRed and transfected with YFP or YFP-ATG8 plasmids; IP with anti-DsRed antibody coupled to agarose beads; blot with anti-YFP
substance,measurement,setting,value
GABARAP(S53D/F62K) (from UniProt O95166 1-117),binding,[1],no binding (tested: 25 μM)
"Golgi-associated ATPase enhancer of 16 kDa/GABARAP-like 2 (GATE-16/GABARAPL2), endogenous (from UniProt P60520 1-117)",binding,[2],binds
Nef-DsRed (HIV-1 Nef fused to DsRed) (from UniProt P03407),binding,[3],binds
same,binding,[4],binds
same,binding,[5],binds
same,binding,[6],binds
YFP-GABARAP (from UniProt O95166 1-117),binding,[7],binds
YFP-GABARAPL2 (from UniProt P60520 1-117),binding,[7],binds
recombinant human LC3A (from UniProt Q9H492 1-121),binding,[1],no binding (tested: 25 μM)
"γ-amino-butyric acid receptor-associated protein (GABARAP), endogenous (from UniProt O95166 1-117)",binding,[2],binds
